Screen size: about 50,000 compounds; about 800 (1.6%) showed an effect of 50% or more. This is one part of the list.
Target: Bcl-2-like protein 10 (Homo sapiens) (UniProt Q9HD36)
Assay: TR3 peptide-Bcl-B binding displacers, biochemical primary FP assay, phenotype converters (AID 1240);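 also: 0% = Bcl-B with tracer peptide and DMSO and 100% = tracer peptide lacking Bcl-B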
Conditions: GST-Bcl-B / FITC-TR3 peptide fluorescence polarization; stronger effect = higher value; compound at 3.75 mg/L

Sequence of UniProt Q9HD36 (Q9HD36 whole entry, looked up): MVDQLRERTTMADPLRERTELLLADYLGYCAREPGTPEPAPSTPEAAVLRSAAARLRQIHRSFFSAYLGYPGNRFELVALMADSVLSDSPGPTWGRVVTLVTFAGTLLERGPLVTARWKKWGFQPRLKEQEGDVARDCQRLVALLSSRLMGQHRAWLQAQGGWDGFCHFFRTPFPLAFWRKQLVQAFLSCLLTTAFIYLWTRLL

Row | SMILES | displacement [%]
1 | CCN1C(=O)/C(=C\c2cc(Cl)c(OCCOc3cccc(OC)c3)c(OC)c2)SC1=S | 2.9
2 | O=c1oc2ccccc2cc1-c1nc(-c2ccc(Cl)c(Cl)c2)cs1 | 61.2
3 | CCC(C)c1ccc(OCCOc2ccc(Cl)cc2/C=N/n2cnnc2)cc1 (stereo unspecified) | -0.3
4 | N/C(=N/c1nc2ccccc2o1)NC(=O)c1ccccc1[N+](=O)[O-] | -14.9
5 | COc1cccc(C2C(C(=O)Nc3ccccc3)=C(C)N=c3s/c(=C\c4ccc(N5CCOCC5)o4)c(=O)n32)c1 (stereo unspecified) | 6.9
6 | CCOc1ccc(NC(=O)c2cc(Br)ccc2Cl)cc1 | 15
7 | Nc1nc(-c2cccs2)c(NC(=O)c2ccccc2)s1 | 8.5
8 | CC1=C(C(=O)Nc2ccccc2C)C(c2ccc(Cl)cc2Cl)NC(=O)N1 (stereo unspecified) | 7.5
9 | Cc1ccc(C)c(C(=O)CSc2ncn[nH]2)c1 | 10.1
10 | CC(C)CC(=O)NS(=O)(=O)c1ccc(NS(C)(=O)=O)cc1 | 12.6
11 | Cc1cc(C)cc(NS(=O)(=O)c2cccc([N+](=O)[O-])c2)c1 | -1.3
12 | Cc1ccc(S(=O)(=O)Nc2ccc3c(c2)ncn3-c2ccccc2)cc1 | 7.2
13 | COc1cc(C(=O)Nc2cccc3nsnc23)cc(OC)c1OC | 22.7
14 | COc1cc([N+](=O)[O-])ccc1NC(=O)C(C)C | 5.3
15 | O=C(CSc1nc2ccccc2c(=O)n1-c1ccccc1)Nc1ccc([N+](=O)[O-])cc1 | 2.3
16 | CCC(=O)Nc1sc2c(c1C(=O)Nc1ccc(OC)cc1)CCC2 | 13.8
17 | O=C(O/C(=C/c1nccn1Cc1ccccc1Cl)c1ccc(F)cc1)c1ccc(F)cc1 | -13.6
18 | O=C(Nc1ccc(Br)cc1)c1ccc(Cl)cc1Cl | -9.7
19 | Cc1ccc(S(=O)(=O)ON2C(=O)c3ccccc3C2=O)cc1 | -6.3
20 | O=C(Nc1ccc(O)cc1)c1ccc2c(c1)C(=O)N(c1ccc([N+](=O)[O-])cc1)C2=O | 15.4
21 | Cc1nc(N)sc1-c1csc(Nc2ccc(S(N)(=O)=O)cc2)n1 | 8.2
22 | COC(=O)c1c(NC(=O)c2ccc(C)cc2)sc2c1CCCCC2 | -9.3

Row | SMILES | displacement [%]
23 | CCOc1ccc2ccccc2c1/C=N\NC(=O)c1ccc([N+](=O)[O-])cc1 | 6.5
24 | NC(=O)/C=C/c1cn(-c2ccccc2)nc1-c1ccccc1 | 7.3
25 | COc1cc2c(cc1OC)C(c1cc([N+](=O)[O-])ccc1OC(C)=O)N(C(C)=O)CC2 (stereo unspecified) | 13.9
26 | Cc1ccc(NC(=O)c2ccc(C#Cc3ccccc3)cc2)cc1C | 9.4
27 | CCCC(=O)NC(c1cccc([N+](=O)[O-])c1)c1ccc2cccnc2c1O (stereo unspecified) | 5.2
28 | O=C(CCc1ccccc1)Nc1ccc(Cl)c([N+](=O)[O-])c1 | -0.7
29 | CC(C)CCC(C(N)=O)C1=NC(C)(C)Cc2ccccc21 (stereo unspecified) | 3.8
30 | COc1ccc(Cl)cc1NC(=O)CN(c1cccc([N+](=O)[O-])c1)S(=O)(=O)c1ccccc1 | 3.9
31 | Cc1ccc(C(=O)NC(=S)Nc2ccc3oc(-c4ccccc4)nc3c2)cc1 | 7.1
32 | CC1=NN(c2cccc(C(=O)O)c2)C(=O)/C1=C\c1ccc(-c2ccc([N+](=O)[O-])cc2)o1 | -0.9
33 | COc1ccc(C2(C)SC(NC(C)=O)=NN2C(C)=O)cc1 (stereo unspecified) | 8.2
34 | COc1ccc(/C=C2/C(=O)NN(c3ccc(C)cc3)C2=O)cc1Br | 9.4
35 | CC(C)COc1ccc(C(=O)Nc2sc3c(c2C(N)=O)CCCCCC3)cc1 | -6.4
36 | Cc1ccc(/C=C2\SC(N3CCC(C)CC3)=NC2=O)cc1 | -15
37 | C#CCOc1c(Cl)cc(/C=C2\C(=O)NC(=O)N(c3ccc(C)cc3)C2=O)cc1OCC | -13.6
38 | O=[N+]([O-])c1ccc(-n2cccn2)c(-c2nn[nH]n2)c1 | -0.5
39 | CCOc1ccc(C(=O)Nc2ccc(NC(=O)c3cc4ccccc4o3)c(OC)c2)cc1[N+](=O)[O-] | -1.3
40 | O=C(CCN1CCC(c2ccccc2)C1)c1ccc2c(c1)OCCO2 (stereo unspecified) | -0.5
41 | COc1ccc(/C=C(\NC(=O)c2ccccc2Br)C(=O)O)cc1 | -8.9
42 | CN(c1ccc(C(=O)NCCSCc2cccc(Cl)c2)cc1)S(=O)(=O)c1ccccc1 | -3.5
43 | O=C(NCc1ccc2c(c1)OCO2)Nc1ccc(Cl)c(Cl)c1 | -5.3
44 | CCOC(=O)c1cnc2c(-c3ccccc3)c(C)nn2c1C | -0.2

Row | SMILES | displacement [%]
45 | Cc1c(C(=O)N2CCC(Cc3ccccc3)CC2)cccc1[N+](=O)[O-] | -8.4
46 | COc1cc(C2NC(=O)NC(C)=C2C(=O)Nc2ccc(C)cc2)ccc1O (stereo unspecified) | 2.3
47 | CCC1CCc2c(sc3nc(SCC(=O)NCc4ccco4)n(-c4ccccc4)c(=O)c23)C1 (stereo unspecified) | -11.7
48 | CCc1ccc2oc(-c3cccc(NC(=O)c4ccccc4Br)c3)nc2c1 | -12
49 | CCCOn1nnc2ccc([N+](=O)[O-])cc21 | -8.7
50 | COc1cc(N=Cc2c(O)n(-c3ccccc3F)c(=O)[nH]c2=O)cc(OC)c1 | 4.2
51 | Cc1ccc(S(=O)(=O)NC(=O)N2CCN(Cc3ccccc3)CC2)cc1 | 11.4
52 | COc1ccccc1C(=O)Nc1nnc(C(C)(C)C)s1 | -11.4
53 | COc1ccc2ccccc2c1/C=N/NC(=O)c1cc(C)[nH]n1 | 35.8
54 | O=C1NC(=Nc2cccc(O)c2)S/C1=C\c1ccc(F)cc1 | 75.8
55 | Cc1nonc1C(=O)N/N=C/c1ccc2c(c1)OCO2 | 0.5
56 | CCOc1ccccc1C=NN1CCN(c2ccc(Cl)cc2)CC1 | -21
57 | COc1ccc(C(=O)Nc2ccc(Cl)cn2)cc1Br | 10
58 | CCOc1ccc(S(=O)(=O)Nc2ccccn2)c2ccccc12 | 15.4
59 | CN(Cc1ccccc1)C(=O)c1cc2ccccc2o1 | 2.4
60 | O=C(CC1S/C(=N\N=C\c2ccccc2)NC1=O)Nc1ccccc1Br (stereo unspecified) | 2.2
61 | CCOC(=O)C1=C(O)/C(=C\c2ccccc2Cl)N=C1C | 8
62 | CC(=O)N/C(C)=C1\C(=O)CC2C1C2(C)C (stereo unspecified) | 17.9
63 | CCc1ccc(OCCNc2cc(NCC(C)O)ccc2[N+](=O)[O-])cc1 (stereo unspecified) | 0.7
64 | CC(C)c1nn2c(N)c(C=C3C=CC(=O)C=C3)c(=O)nc2s1 | -0.1
65 | COc1cccc(/C=N/NC(=O)C(=O)N2CCCCCC2)c1O | -18.7
66 | Cc1ccnc(NS(=O)(=O)c2ccc(NC(=O)/C=C/c3ccc(C(C)C)cc3)cc2)n1 | -8.5

Row | SMILES | displacement [%]
67 | O=C(/C=C/c1ccc2ncccc2c1)c1c(-c2ccccc2)c2cc([N+](=O)[O-])ccc2[nH]c1=O | 8.7
68 | COC(=O)c1ccc(/C=C2\C(=O)NC(=O)N(c3cccc(Br)c3)C2=O)cc1 | 4
69 | O=C(Nc1cc(C(F)(F)F)ccc1Cl)c1ccc2c(c1)OCO2 | 6.3
70 | O=P(O)(CP(=O)(O)c1ccccc1)c1ccccc1 | 14.1
71 | CCOC(=O)C1=C(O)/C(=C/c2cccnc2)SC1=Nc1cccc(Cl)c1 | 2.1
72 | COc1cc(NC(=O)CCN2C(=O)c3ccccc3C2=O)c(OC)cc1Cl | -3.4
73 | O=C(NCc1ccccc1)c1ccc2c(c1)OCCO2 | -9
74 | Brc1ccc(OCCOc2ccc(/C=N/n3cnnc3)cc2)cc1 | -10.8
75 | CCCCc1ccc(CCCCC(=O)O)s1 | -5.1
76 | COc1ccc2ccccc2c1-c1nnc2ccc(C(F)(F)F)cn12 | 19.1
77 | Cc1ccc(-n2c(C)cc(/C=N/NC(=O)c3cccnc3)c2C)cc1C | -27
78 | CCOc1ccc(NC(=O)CN(c2ccc(C)cc2)S(C)(=O)=O)cc1 | 4.2
79 | CN(C)c1ccc(/C=N/n2cnc3sc4c(c3c2=O)CCCC4)cc1 | 2.6
80 | CC(=O)Nc1cc(-c2ccc(C)cc2)[nH]n1 | 9
81 | CCOC(=O)c1ccc(NC(=O)CN(c2ccccc2CC)S(C)(=O)=O)cc1 | 2.7
82 | O=C(NCCCn1ccnc1)c1cccc([N+](=O)[O-])c1 | 9
83 | CC(CCC(=O)Nc1nc2ccccc2s1)CC(=O)Nc1nc2ccccc2s1 (stereo unspecified) | 4.4
84 | COc1cc(/C=C2/C(=O)N(c3ccc(Cl)c(Cl)c3)N=C2C)ccc1OC(C)=O | 10.1
85 | Cc1ccc(C(=O)N2CCN(c3ccccc3)CC2)o1 | 5.1
86 | CNC(=O)C(=O)NCCN1CCN(C(=O)c2cccc([N+](=O)[O-])c2)CC1 | -7.9
87 | CC1=C(C(=O)OCc2ccccc2)C(c2ccc([N+](=O)[O-])cc2)CC(=O)N1 (stereo unspecified) | -16.1
88 | CCOC(=O)c1ccc(NC(=S)NC(=O)c2ccc(Cl)cc2)cc1 | 35.9

Row | SMILES | displacement [%]
89 | CCc1ccc(N2CC(C(=O)Nc3ccc(I)cc3)CC2=O)cc1 (stereo unspecified) | -10.7
90 | COC(=O)CN1C(=O)Nc2ccc(Br)cc2C1c1ccccc1Cl (stereo unspecified) | -19.8
91 | COc1ccc(CN2CCN(C(=O)c3ccccc3)CC2)c(OC)c1OC | -1.5
92 | COc1cc(/C=C2\SC(=S)N(Cc3ccccc3)C2=O)cc(Br)c1O | -51
93 | COc1cc(C(=O)Oc2cccc(C(=S)N3CCOCC3)c2)cc(OC)c1OC | -11.2
94 | CC1(C)CC(N=C(c2ccccc2)c2ccc(O)cc2O)CC(C)(C)N1 | 17.4
95 | O=C(O)c1ccc(NC(=O)c2cccs2)c(NC(=O)c2cccs2)c1 | -15.1
96 | COc1cccc(N2C(=O)NC(=O)/C(=C/c3ccc(Br)s3)C2=O)c1 | -28.2
97 | c1ccc(CCCNCCc2ccc3c(c2)OCO3)cc1 | -13.9
98 | COc1ccc(CCN(C(=O)c2ccccc2)C2=CC3CCC(C2)N3C)cc1OC (stereo unspecified) | -5.3
99 | O=[N+]([O-])c1ccc(N2CCN(S(=O)(=O)c3ccc(Cl)cc3)CC2)c(C(F)(F)F)c1 | 8.3
100 | CC1(C)CC(=O)C2=C(C1)Nc1ccccc1N(C(=O)Cc1ccccc1)C2c1cccc(F)c1 (stereo unspecified) | -7.7
101 | COc1ccc(OC)c(C2NC(=O)NC3=Nc4ccccc4NC(c4ccccc4)=C32)c1 (stereo unspecified) | 12.3
102 | COc1ccc(NC(=O)C2CC(C)=C(C)CC2C(=O)O)cc1 (stereo unspecified) | -1.1
103 | O=C(Nc1ccc(Cl)cc1)c1ccc([N+](=O)[O-])cc1 | 1.9
104 | Cc1ccc2c(C)[n+](C)ccn12 | 5.3
105 | O=[N+]([O-])c1ccc(S(=O)N(c2ccccn2)C2CCCCC2)cc1 (stereo unspecified) | -7.2
106 | Cc1cccc(NC(=O)CSc2nsc(SCC(=O)Nc3cccc(C)c3)n2)c1 | 15.1
